Laboratory results published in the RNAGym collection of RNA variant scans (doi:10.1093/nar/gkz1192).
The source gives no read counts; variants with many changes may rest on few reads.

B1: CPEB3 Ribozyme (parent)
chain: UAACAGGGGGCCACAGCAGAAGCGUUCACGUCGCAGCCCCUGUCAGAUUCUGGUGAAUCUGCGAAUUCUGCUGUAUAUCUC

Variants of: B1
Experiment: self-cleavage, relative activity (ratio to wild type); higher = more cleavage; in vitro, sequencing
Method in brief: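 Barcoded CPEB3 ribozyme mutants, produced by rounds of error-prone PCR, self-cleaved while being transcribed with T7 RNA polymerase for 5 hours at 37°C and during a subsequent 15 min DNase I step before EDTA was added. Sequencing of template-switched cDNA on Illumina gave cleaved and total reads, and DNA sequencing assigned barcodes to variants. Each variant's relative activity is its cleaved/total read fraction divided by the unmutated ribozyme's fraction, averaged across three batches. A variant needed a minimum of 5 reads.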

Row | Variant | self-cleavage
1 | A13U C38U U41A U60A | 0.08
2 | A13U C38U U54A | 1.08
3 | A13U C39A A57U U58A | 0.1
4 | A13U C39A A64U | 0.14
5 | A13U C40A A47U U54C | 0.11
6 | A13U C40U A75G | 1.01
7 | A13U C40U U41A A47G A64G U74C | 0.16
8 | A13U C40U U41C | 1.19
9 | A13U C44G U72A | 0.16
10 | A13U C44U A56G | 0.13
11 | A13U C59G U60A A65G U66C U80C | 0.11
12 | A13U C62A U69G | 0.39
13 | A13U G16A A35U U54C U67C | 0.1
14 | A13U G16A U58C U66C U72A | 0.38
15 | A13U G16U A18U U67A | 0.08
16 | A13U G16U A21G C38A | 0.45
17 | A13U G16U A57G U60A U74A | 0.14
18 | A13U G16U C34U | 0.15
19 | A13U G16U U43A C81U | 0.52
20 | A13U G19A A21G | 0.18
21 | A13U G19C A21G U26G A35G A77G | 0.04
22 | A13U G19U A45U U60A | 0.07
23 | A13U G19U A77G | 0.23
24 | A13U G19U U43C | 0.08

Row | Variant | self-cleavage
25 | A13U G22A C23G U26C C62U U76C A77G | 0.03
26 | A13U G22A U43G | 0.2
27 | A13U G22C C44U U69C U78C | 0.12
28 | A13U G22U C37U A45C U54A U66A | 0.07
29 | A13U G24A A45G U51A | 0.09
30 | A13U G24C A75C | 0.21
31 | A13U G30A A35G U51C | 0.17
32 | A13U G30A U31C A47C | 0.06
33 | A13U G30A U31C U41A U48C | 0.18
34 | A13U G30A U72C U80G | 0.08
35 | A13U G33A A35G A45U G52A U66A | 0.05
36 | A13U G33C A35G C40G U43C U67C | 0.11
37 | A13U G33U U48C A57G C62U | 0.14
38 | A13U G36A A77U | 0.31
39 | A13U G36A G55A | 0.16
40 | A13U G36U C40U U54C U69A | 0.12
41 | A13U G36U U41A A47G U58C | 0.13
42 | A13U G36U U69A | 0.08
43 | A13U G42A A45G U78C U80C | 0.16
44 | A13U G42A A45U A65G U69A | 0.03
45 | A13U G42A C50G U72C | 0.13
46 | A13U U25A A47G U49C G52A G63A | 0.18
47 | A13U U25A U43A U58C U60A | 0.06
48 | A13U U25A U76C | 0.43

Row | Variant | self-cleavage
49 | A13U U25A U78C | 0.49
50 | A13U U25C A28U A57G U60C | 0.12
51 | A13U U25C A35G U43C U67A | 0.21
52 | A13U U25C A35U A47U A56G U60A U69A | 0.14
53 | A13U U25C A47G A56U G70A A77G | 0.04
54 | A13U U25C A57G | 0.19
55 | A13U U25C A64U | 0.16
56 | A13U U25C A77G | 0.34
57 | A13U U25C C44G G53U U74C U76C | 0.05
58 | A13U U25C C44U U80C | 0.48
59 | A13U U25C G30A U31C C38U U58A | 0.06
60 | A13U U25C G33A G36U | 0.07
61 | A13U U25C G46C | 0.14
62 | A13U U25C U26C C34A A35G A45C U72C | 0.07
63 | A13U U25C U41A U43A A57G U60G | 0.18
64 | A13U U25C U41A U49C U66A | 0.04
65 | A13U U25C U41C | 0.18
66 | A13U U25C U54C U58C | 0.08
67 | A13U U25C U69C | 0.12
68 | A13U U26A A28G U31C U51A U58A C81G | 0.06
69 | A13U U26A A77C | 1.04
70 | A13U U26A G33A U69C U72C | 0.07
71 | A13U U26A U41C A45U G61U A64G | 0.08
72 | A13U U26A U48C U60C U76C | 0.18

Row | Variant | self-cleavage
73 | A13U U26A U69C | 0.28
74 | A13U U26C A28G U80C | 0.3
75 | A13U U26C A35G | 1.1
76 | A13U U26C A45G C50U U51C U72C | 0.22
77 | A13U U26C A45U A47G U54G U67G U72C | 0.05
78 | A13U U26C A57U U60C C71U | 0.1
79 | A13U U26C A57U U69A | 0.11
80 | A13U U26C A75G | 0.28
81 | A13U U26C C34U U41A U54C A56U | 0.12
82 | A13U U26C C39U A64G U72A | 0.06
83 | A13U U26C G42A A45G C50U U51C | 0.08
84 | A13U U26C U31A A35U | 0.18
85 | A13U U26C U31C A75G | 0.15
86 | A13U U26C U31C C81U | 0.35
87 | A13U U26C U41A U48A U54A A57G U58C | 0.03
88 | A13U U26C U49A C68A | 0.22
89 | A13U U26G G30A A35G G42A U72C | 0.06
90 | A13U U26G U54C C79A | 0.25
91 | A13U U31A A35G A65U U66C | 0.34
92 | A13U U31A G33U A57G | 0.09
93 | A13U U31A G52A A56U G63A U80C | 0.24
94 | A13U U31A U43C | 0.37
95 | A13U U31A U54C U72C | 0.59
96 | A13U U31A U67A | 0.13

Row | Variant | self-cleavage
97 | A13U U31A U69C | 0.24
98 | A13U U31A U78C | 0.67
99 | A13U U31C A45G | 0.86
100 | A13U U31C A47G A64G | 0.45
101 | A13U U31C A64G U72A | 0.22
102 | A13U U31C A77G | 1.12
103 | A13U U31C C62U U67C | 0.12
104 | A13U U31C U41C | 0.85
105 | A13U U31C U41C U51C U74C U78C | 1.07
106 | A13U U31C U43A A64G | 0.68
107 | A13U U31C U43C A56U A77U | 0.11
108 | A13U U31C U43C A77U | 0.36
109 | A13U U31C U48A A57G A75U | 0
110 | A13U U31C U48C U51C | 0.46
111 | A13U U31C U49C U54C A56G A77G U78C | 0.49
112 | A13U U31C U60C U67A | 0.2
113 | A13U U31C U69C U72A | 0.33
114 | A13U U31C U76A | 1.08
115 | A13U U41A A47G A56G U69A | 0.07
116 | A13U U41A A56U C79A | 0.2
117 | A13U U41A A64G A65G U69C | 0.21
118 | A13U U41A A64U | 0.1
119 | A13U U41A C59A | 0.44
120 | A13U U41A U48C | 0.19

Row | Variant | self-cleavage
121 | A13U U41A U72C U76A | 0.24
122 | A13U U41A U78C | 0.19
123 | A13U U41C A56G U58C | 0.22
124 | A13U U41C A75U | 1.23
125 | A13U U41C U43A U69C | 0.37
126 | A13U U41C U48C U60C U78C | 0.38
127 | A13U U41C U51C | 1.23
128 | A13U U41C U69A | 0.65
129 | A13U U41G A56G A57G U72C U78C | 0.06
130 | A13U U41G U54C U58C U60C U69C C79U | 0.14
131 | A13U U43A A47G A64G U69A | 0.34
132 | A13U U43A A47G U80A | 1.25
133 | A13U U43A A75G | 1.06
134 | A13U U43A C50A G52U G63U | 1.29
135 | A13U U43A U58C | 1.01
136 | A13U U43A U60C U66A U80C | 0.21
137 | A13U U43A U67A | 0.74
138 | A13U U43C A56G A64G A65G U78A | 0.11
139 | A13U U43C A57U U72C | 0.13
140 | A13U U43C A77C | 0.75
141 | A13U U43C U49C U51C | 0.18
142 | A13U U43C U51C | 0.93
143 | A13U U43C U54A U60A U69A | 0.13
144 | A13U U43C U54C C62U U78A | 0.14

Row | Variant | self-cleavage
145 | A13U U43C U67A A77U | 0.43
146 | A13U U43C U80A | 1.06
147 | A13U U48C U54C U67A U80C | 0.45
148 | A13U U48C U66C A75G | 0.32
149 | A13U U48C U67C | 0.22
150 | A13U U48C U72C | 0.27
151 | A13U U49A A56U G63A A64G | 1.01
152 | A13U U49A U67C | 0.2
153 | A13U U49A U74A U80G | 1.05
154 | A13U U49C A56G | 1.42
155 | A13U U49C A64G | 0.19
156 | A13U U49C U58A U76A | 0.2
157 | A13U U51A U72A U80C | 1.14
158 | A13U U51A U72C U78C | 1.23
159 | A13U U51A U76C | 1.21
160 | A13U U51A U80A | 1.27
161 | A13U U51C A56G G70A U80C | 0.51
162 | A13U U51C A65U | 0.3
163 | A13U U51C C81A | 1.08
164 | A13U U51C U54C | 1.01
165 | A13U U51C U78A | 1.28
166 | A13U U54A G70A U72A | 0.42
167 | A13U U54A U72A A75G | 1.08
